Assay results: patent publication US20180371090A1

Target: human CD3 on Jurkat cells (human) (UniProt P07766)
Assay: flow cytometry on Jurkat cells, FITC anti-human IgG secondary

Geom. Mean:FITC-A: 2700
B1: Control Antibody 1, Anti-hCD3_L2K with wild-type human IgG1 heavy chain constant region (antibody, part only; not given: L2K light chain, part only)
heavy: DVQLVQSGAEVKKPGASVKVSCKASGYTFTRYTMHWVRQAPGQGLEWIGYINPSRGYTNYADSVKGRFTITTDKSTSTAYMELSSLRSEDTATYYCARYYDDHYCLDYWGQGTTVTVSS[in this place human IgG1 constant region]
